# Data published in the supplement of paper PMC3334620.
# The full ranking holds about 33,000 sequences; the median of “E-score (-0.5 to 0.5)” is about -0.036, and the highest 2% start at about 0.37. The list shows a part of the results.
# Target: T1, Yer064c (UniProt P40041)
# T1 sequence: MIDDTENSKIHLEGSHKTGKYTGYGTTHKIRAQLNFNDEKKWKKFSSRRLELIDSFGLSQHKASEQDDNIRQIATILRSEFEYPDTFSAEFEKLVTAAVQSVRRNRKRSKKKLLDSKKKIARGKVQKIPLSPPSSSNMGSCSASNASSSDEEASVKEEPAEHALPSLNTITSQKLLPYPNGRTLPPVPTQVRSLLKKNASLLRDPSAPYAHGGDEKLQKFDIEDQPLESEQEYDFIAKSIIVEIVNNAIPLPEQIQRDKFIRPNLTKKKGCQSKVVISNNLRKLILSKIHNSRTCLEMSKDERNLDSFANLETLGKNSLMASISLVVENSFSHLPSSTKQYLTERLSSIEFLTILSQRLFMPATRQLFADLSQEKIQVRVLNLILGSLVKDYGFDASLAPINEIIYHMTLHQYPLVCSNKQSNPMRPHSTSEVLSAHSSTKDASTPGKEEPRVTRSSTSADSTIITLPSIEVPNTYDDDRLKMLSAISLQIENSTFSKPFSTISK
# Assay: PBM E-score (8-mer binding enrichment) (E-score (-0.5 to 0.5)); higher = stronger / more preferred TF binding; most listed sequences are background and not binding sites
# Settings: protein concentration: 200 nM; construct: GST-full length
# Experimental: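 Universal 'all 10-mer' protein binding microarrays (Agilent AMADID 015681) probed with GST-tagged S. cerevisiae TFs (full-length or DBD) made by in vitro transcription/translation (PURExpress), about 100-200 nM. Bound TF was detected with fluorescent anti-GST. Each ungapped 8-mer (which stands for itself and its reverse complement) is scored by the PBM enrichment score (E-score), a modified Wilcoxon-Mann-Whitney statistic from -0.5 to +0.5, computed with the Universal PBM Analysis Suite. Scale: above 0.35 generally sequence-specific binding.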
row,Sequence,PBM E-score
1,GTATGGGA,-0.288
2,GCGCGAAC,-0.102
3,ATTGTGCC,-0.0362
4,CAAAGTCG,0.167
5,AGTGGTAG,-0.149
6,ATGGTAGG,-0.0528
7,ACCGAAAC,-0.109
8,TCCAACGA,0.173
9,CAGTACGA,0.0701
10,CTAGATTA,0.265
11,CTTAGGGC,-0.108
12,CTACGCCC,-0.0516
13,CTATAAAC,0.0724
14,AACGGGAT,-0.185
15,TAGTTCGA,-0.126
16,ACCCTTTG,-0.176
17,CCACCAGG,-0.174
18,AGTAGGGC,-0.154
19,CGTTTTAC,0.0584
20,GTGAGTAA,0.331
21,ACGTCGCC,-0.299
22,GTCCTAAA,0.119
23,ACCGGGGG,-0.236
24,ATTGATTA,0.286
25,GTATAATA,0.125

row,Sequence,PBM E-score
1,ATTAAATC,0.262
2,GTGTACAC,-0.0474
3,TACAGGCA,-0.102
4,AGGGCATA,0.068
5,CGTGTTAC,0.133
6,ACCCAGCT,-0.215
7,AGATCATG,0.104
8,ACGCCGGG,-0.255
9,AGCCAGAG,0.108
10,GACGTAGA,-0.173
11,CAATGTAG,-0.0784
12,AGGTCACC,0.00721
13,AATAATAC,0.0338
14,AAGTGCAC,-0.0148
15,CCTGTCTC,0.112
16,ACACGCTA,-0.0441
17,GCGACTTA,0.266
18,CTCCGTAC,-0.0196
19,CGATAAAG,-0.0425
20,AGTCATGA,0.485
21,TATCAGGA,0.105
22,ACAGGTAC,-0.154
23,AACGCGCC,-0.172
24,AAATAGTT,-0.0372
25,CAAACATC,0.0712

row,Sequence,PBM E-score
1,CCCATTGC,-0.0354
2,GCGGACGC,-0.125
3,CTCGACTC,0.34
4,ACCTACAA,-0.049
5,ATGGTAAG,-0.0135
6,GAAATTCC,-0.153
7,CACCCTAA,-0.0623
8,GCGCTCAA,-0.0234
9,CATTCTGA,0.166
10,GGATGGAC,-0.0919
11,ACAGTTCA,0.0788
12,CGCCTCCA,-0.134
13,ATCACTGC,0.229
14,GTCTGTAA,-0.0205
15,CCTCCCGA,-0.138
16,CTACCCGC,0.0472
17,GAACGATC,-0.11
18,TCACTGGA,-0.0186
19,AGTTAAAC,0.133
20,AACCATGC,0.158
21,ACGGCCAG,-0.206
22,AAAGTCAA,0.319
23,ACCACATG,0.127
24,CCGGAACA,-0.144
25,GCTCTGAC,0.0728

row,Sequence,PBM E-score
1,GGCCCAAC,-0.249
2,TAAATGAA,0.0301
3,ACCCCGTC,-0.135
4,ACTTAGGC,0.0394
5,CTGCCAAC,-0.123
6,CACTCTAG,-0.0744
7,CCCGGAGG,-0.243
8,AGGGTTTC,-0.306
9,CGGTTCCA,-0.193
10,GCTGTCAC,-0.132
11,GATCACAC,0.178
12,CTGAAAAA,0.0477
13,AGAACGGG,-0.182
14,ACAACGTA,-0.0564
15,ACACCGCC,-0.0173
16,CCTTATTC,-0.264
17,CGGCCCCG,-0.271
18,AGGGTTAC,-0.0655
19,AAATCAAT,0.196
20,GCAGGCAA,-0.0374
21,CTATCTAA,-0.00256
22,CAACCGCG,0.152
23,AACAAGAT,0.0644
24,CGATGCAC,-0.246
25,AGTCCAGG,0.0238

row,Sequence,PBM E-score
1,GGCCGTAA,-0.15
2,ATAGGAGA,-0.153
3,AGCTAGAT,-0.12
4,CCCCTTGA,0.0833
5,TAGGTTCA,0.0589
6,AAGTGTCG,-0.0503
7,CGTCGGTC,-0.0819
8,ATCCACAC,-0.104
9,TACTTCCA,-0.119
10,CGCGCTAG,0.00499
11,GAGCACGA,0.0851
12,ACTAATCG,0.226
13,GATGATCA,0.323
14,GCCATACA,-0.0155
15,ACTAGGGG,-0.129
16,TGCCTACA,-0.303
17,AGGTATAA,0.0395
18,CGTCGTGC,-0.106
19,GTGGTTAA,0.222
20,GCGGGGAC,-0.0668
21,AATGTAAA,0.00266
22,GTTAGCTA,-0.0723
23,ATCAAATG,0.165
24,GCAGACAC,-0.00677
25,GTTAAGCA,-0.0802

row,Sequence,PBM E-score
1,CCGGAATA,-0.118
2,AGAATGCA,-0.00775
3,CGGCATGC,-0.211
4,ACCTATCA,-0.0853
5,CACGGCGG,-0.121
6,CTATACGA,0.126
7,ACCTAGTA,0.0718
8,AAGATAAG,0.154
9,TTCTGCAA,-0.00185
10,ATACGCAT,-0.0702
11,ATATGCTC,-0.235
12,CCTGGTCA,-0.154
13,CACGCATG,0.081
14,AGATCGTG,-0.0981
15,AAGGCCCA,-0.152
16,AATCATCT,0.453
17,CATACCGA,-0.0168
18,CCCCCAGC,-0.0581
19,AGTCTGCC,0.251
20,AACCGAAA,0.0664
21,AAGACTTA,0.33
22,AGACCTGC,-0.134
23,GGTCCCAA,-0.14
24,CGACTGGA,-0.115
25,CCATATGG,0.0474

row,Sequence,PBM E-score
1,AAGCAGGA,-0.0481
2,TCTGCCAA,-0.0288
3,GGCCTTAA,-0.122
4,AATGCGGA,-0.0306
5,AGACGATA,-0.106
6,GGGCTGTA,-0.212
7,TACCGGTA,-0.207
8,ATGAGAGA,0.111
9,ATGTGACC,0.109
10,AACCAAGT,0.0684
11,AGCCTCTA,-0.216
12,CCCACCCC,-0.126
13,CAGAGTGC,0.0507
14,AGATATTC,-0.12
15,AATAAACG,-0.133
16,ACATCTTG,-0.0492
17,AGGAGCAC,-0.0195
18,AGGCCAAG,-0.19
19,CATGTGTA,0.269
20,CGAATGCA,-0.118
21,AACAGGGA,-0.0524
22,ACGGCCTC,-0.163
